The full ranking holds about 18,000 sequences; the median of “TetR repression strength (sort-seq, GFP reporter)” is about 0.23, and the highest 2% start at about 0.68. The list shows a part of the results.

From a collection of fitness landscapes (doi:10.1038/s41467-024-54723-y) come the findings set out here.

Chain of UniProt P04483 (P04483 whole entry): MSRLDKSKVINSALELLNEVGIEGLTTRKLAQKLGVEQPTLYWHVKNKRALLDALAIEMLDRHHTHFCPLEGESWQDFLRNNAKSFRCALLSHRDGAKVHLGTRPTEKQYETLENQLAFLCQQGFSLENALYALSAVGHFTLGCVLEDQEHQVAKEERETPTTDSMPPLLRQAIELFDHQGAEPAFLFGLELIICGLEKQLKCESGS

This assay concerns the target TetR (class B, Tn10) (UniProt P04483). The experiment in a line: TetR repression strength (sort-seq, GFP reporter) (relative to tetO2 = 1); higher = stronger repression. Particulars: E. coli. The gist of the method:
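E. coli SIG10-MAX carried a low-copy plasmid library with eight randomized operator positions between a constitutive promoter and sfGFP, with TetR constitutively expressed. Cells grew 5 h at 37 °C in LB with 50 µg/mL chloramphenicol, then 10^6 cells were FACS-sorted into 13 fluorescence bins, each Illumina-sequenced. Repression strength is the top bin index plus one minus the read-weighted mean bin, divided by the wild-type operator value. Three independent transformations; variants with ≥30 reads in all replicates and CV ≤0.5 were averaged.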
The sequence TCCCGTCAAGTCTGCGAGA yielded a TetR repression strength of 0.0266.

Sequence TCCCCACTAGTAGGTGAGA showed a TetR repression strength of 0.3.

For the sequence TCCCTGACAGTAAAGGAGA, the TetR repression strength was found to be 0.363.

As to TCCCGCCCAGTTCGGGAGA, the TetR repression strength amounted to 0.378.

Take TCCCGTCGAGTGGAAGAGA: the TetR repression strength was found to be 0.253.

TCCCTGGGAGTAGCGGAGA yielded a TetR repression strength of 0.13.

For TCCCTGACAGTACTGGAGA, the TetR repression strength turned out to be 0.276.

Take TCCCGGCGAGTTTAAGAGA: the TetR repression strength worked out at 0.285.

Sequence TCCCTGCGAGTGTTGGAGA had a TetR repression strength of 0.157.

For TCCCGCAGAGTGGGTGAGA, the TetR repression strength was determined as 0.206.

TCCCTGGGAGTCAGCGAGA: the TetR repression strength worked out at 0.227.

For TCCCCATGAGTTGTAGAGA, the TetR repression strength came out at 0.165.

In the case of TCCCGGCTAGTCGTAGAGA, the TetR repression strength stood at 0.307.

Sequence TCCCGAATAGTGTTCGAGA had a TetR repression strength of 0.161.

TCCCAATGAGTCGGGGAGA showed a TetR repression strength of 0.274.

Consider TCCCGTGGAGTCGGTGAGA, for which the TetR repression strength is 0.205.

Regarding TCCCCTTCAGTCATAGAGA, the TetR repression strength came to 0.474.

The sequence TCCCTTTGAGTGGCGGAGA gave a TetR repression strength of 0.286.

TCCCGCACAGTTCGGGAGA came in with a TetR repression strength of 0.

The sequence TCCCGGCAAGTGCTAGAGA returned a TetR repression strength of 0.0222.

For TCCCCGGTAGTAGAGGAGA, the TetR repression strength came to 0.19.

TCCCATAAAGTGCCAGAGA: the TetR repression strength turned out to be 0.0202.

For TCCCGAGCAGTGGGTGAGA, the TetR repression strength was 0.152.

The sequence TCCCACGAAGTGGTCGAGA gave a TetR repression strength of 0.0726.

For TCCCAGGCAGTTGGGGAGA, the TetR repression strength worked out at 0.327.

For TCCCCAGGAGTCTATGAGA, the TetR repression strength was 0.

For the sequence TCCCGCTGAGTTACCGAGA, the TetR repression strength was found to be 0.211.

As for TCCCTTTAAGTCATAGAGA, the TetR repression strength is 0.551.

TCCCGGGGAGTTAGTGAGA: the TetR repression strength worked out at 0.189.

Sequence TCCCTAGAAGTTTAAGAGA registered a TetR repression strength of 0.0122.

For TCCCACGGAGTAAAGGAGA, the TetR repression strength was 0.205.

TCCCGTGTAGTCAGTGAGA returned a TetR repression strength of 0.215.

Turning to TCCCCGGAAGTGGCCGAGA, the TetR repression strength came to 0.187.

On to TCCCGCCCAGTTAGGGAGA, for which the TetR repression strength turned out to be 0.402.

TCCCTAAAAGTCTACGAGA came in with a TetR repression strength of 0.16.

TCCCGGGAAGTCGGGGAGA displayed a TetR repression strength of 0.266.

As for TCCCATACAGTGGACGAGA, the TetR repression strength was found to be 0.185.

Sequence TCCCACCAAGTCCGAGAGA showed a TetR repression strength of 0.33.

As for TCCCCCAAAGTTTGTGAGA, the TetR repression strength was found to be 0.358.

TCCCCTTGAGTGCTTGAGA had a TetR repression strength of 0.355.

In turn, TCCCATACAGTGTAAGAGA displayed a TetR repression strength of 0.0864.

TCCCAGGGAGTTGGAGAGA displayed a TetR repression strength of 0.265.

Regarding TCCCATAGAGTGCGTGAGA, the TetR repression strength is 0.18.

For TCCCCAGTAGTCTTCGAGA, the TetR repression strength came out at 0.231.

With TCCCTGTCAGTTTGAGAGA, the TetR repression strength was 0.235.

TCCCGTGTAGTGATCGAGA showed a TetR repression strength of 0.209.

TCCCCCACAGTGTATGAGA yielded a TetR repression strength of 0.333.

Regarding TCCCGCAGAGTGTAAGAGA, the TetR repression strength came to 0.753.

For the sequence TCCCTTTGAGTTGGGGAGA, the TetR repression strength was found to be 0.0965.

For TCCCTACGAGTGAGAGAGA, the TetR repression strength came to 0.338.

TCCCCTGGAGTGATGGAGA: the TetR repression strength worked out at 0.177.

Consider TCCCCGTTAGTTGTAGAGA, for which the TetR repression strength was determined as 0.187.

TCCCGGGTAGTTGGTGAGA registered a TetR repression strength of 0.171.

Take TCCCTACAAGTATGGGAGA: the TetR repression strength is 0.393.

TCCCTCTCAGTTCGGGAGA registered a TetR repression strength of 0.161.

In turn, TCCCGAAGAGTTGAAGAGA yielded a TetR repression strength of 0.161.

With TCCCTAAGAGTTGAGGAGA, the TetR repression strength stood at 0.0895.

The sequence TCCCTCCGAGTGGAGGAGA displayed a TetR repression strength of 0.0996.

TCCCGGGGAGTTGGCGAGA returned a TetR repression strength of 0.183.

In turn, TCCCTCATAGTATGAGAGA yielded a TetR repression strength of 0.207.

In the case of TCCCCAAAAGTGAGTGAGA, the TetR repression strength was found to be 0.131.

The sequence TCCCTAAAAGTGGGGGAGA yielded a TetR repression strength of 0.143.

The sequence TCCCACACAGTGAGTGAGA registered a TetR repression strength of 0.189.

Take TCCCGGGAAGTTACAGAGA: the TetR repression strength is 0.0346.

Consider TCCCTATCAGTCGATGAGA, for which the TetR repression strength is 0.531.

TCCCCCTGAGTACCTGAGA registered a TetR repression strength of 0.296.

TCCCTGCTAGTTGGTGAGA had a TetR repression strength of 0.27.

For TCCCTGGCAGTCACAGAGA, the TetR repression strength came out at 0.298.

Consider TCCCCCGTAGTGTGTGAGA, for which the TetR repression strength stood at 0.12.

The sequence TCCCTCCCAGTGGGGGAGA displayed a TetR repression strength of 0.217.

In turn, TCCCTTGTAGTAGGGGAGA gave a TetR repression strength of 0.255.

Regarding TCCCTGGCAGTCGATGAGA, the TetR repression strength was 0.195.

In the case of TCCCGTTTAGTATTTGAGA, the TetR repression strength was found to be 0.713.

As for TCCCGTAAAGTTTTCGAGA, the TetR repression strength was 0.162.

In turn, TCCCTTAGAGTACTTGAGA returned a TetR repression strength of 0.342.

TCCCATTCAGTACTTGAGA came in with a TetR repression strength of 0.184.

Turning to TCCCAGTGAGTGTCGGAGA, the TetR repression strength was determined as 0.183.

TCCCTGGGAGTCTCGGAGA registered a TetR repression strength of 0.277.

In turn, TCCCCGGCAGTACCCGAGA had a TetR repression strength of 0.181.

Sequence TCCCTATGAGTGGTGGAGA showed a TetR repression strength of 0.119.

Turning to TCCCGTATAGTTTTGGAGA, the TetR repression strength came to 0.119.

For TCCCTACTAGTTAAGGAGA, the TetR repression strength stood at 0.0241.

Regarding TCCCACTGAGTTGAGGAGA, the TetR repression strength was 0.219.

Take TCCCCGACAGTTGTAGAGA: the TetR repression strength amounted to 0.415.

For the sequence TCCCTTTTAGTCGGGGAGA, the TetR repression strength came to 0.179.

In turn, TCCCCTGGAGTAGGGGAGA returned a TetR repression strength of 0.302.

Consider TCCCCCACAGTTACCGAGA, for which the TetR repression strength worked out at 0.223.

TCCCGTCCAGTGGTCGAGA returned a TetR repression strength of 0.143.

TCCCTTTAAGTGCCCGAGA returned a TetR repression strength of 0.588.

On to TCCCCAAGAGTAAAGGAGA, for which the TetR repression strength was 0.155.

Turning to TCCCCATGAGTGTAGGAGA, the TetR repression strength came to 0.182.

In turn, TCCCCTTTAGTTGGGGAGA displayed a TetR repression strength of 0.239.

The sequence TCCCTGTGAGTCACGGAGA displayed a TetR repression strength of 0.0821.

The sequence TCCCGCGAAGTAGATGAGA gave a TetR repression strength of 0.319.

Take TCCCTTGTAGTATGTGAGA: the TetR repression strength was 0.133.

In turn, TCCCTTCCAGTTGTCGAGA returned a TetR repression strength of 0.355.

As to TCCCGCGTAGTGTACGAGA, the TetR repression strength came out at 0.108.

As for TCCCATCAAGTAGGGGAGA, the TetR repression strength turned out to be 0.0957.

With TCCCCACCAGTCGGAGAGA, the TetR repression strength worked out at 0.22.

For the sequence TCCCGGAGAGTGCGGGAGA, the TetR repression strength turned out to be 0.143.

As for TCCCTTCCAGTTGTGGAGA, the TetR repression strength stood at 0.344.

The sequence TCCCGCGTAGTGGCAGAGA had a TetR repression strength of 0.329.
